Drawing on PMC10120551, “Novel Glu-based pyrazolo[3,4-d]pyrimidine analogues: design, synthesis and biological evaluation as DHFR and TS dual inhibitors” (Journal of Enzyme Inhibition and Medicinal Chemistry, 2023), this text covers TGI, GI50 and CC50 for one compound.

The subject of one assay is A549/ATCC. The settings on record: Non-small cell lung cancer, five-dose 0.01–100 µM. Here is the method: (§1) (Figures S53–S56 in Supporting Information). This assay evaluates GI50, TGI, and LC50 parameters, as cited in Table 1. Their values correspondingly represent the GI level, cytostatic impact, and cytotoxicity parameter. Furthermore, based on the GI50 values, the mean graph midpoints (MG-MID) for both full NCI 59 cell panel and subpanel cancer cell lines were evaluated, affording a median potency parameter for the examined compound 6i, as depicted in Table 2.
(§2) The designed analogues were submitted to NCI-Chemotherapeutic Agents Repository (MD, USA) for screening on a panel of 59 cancer cell lines. All compounds were initially examined at 10 µM concentration (Single-Dose Screen), and then the most efficient analogue 6i was screened further at 0.01–100 µM (Five-Dose Screen). The screening procedures were performed according to NCI-Drug Evaluation Branch protocol using SRB protein assay, as described previously[21]^,[66]. The experimental procedures were detailed in the Supporting Information. […]
(§3) inoculation, the microtiter plates are incubated at 37° C, 5 % CO2, 95 % air and 100 % relative humidity for 24 h prior to addition of experimental drugs.
(§4) After 24 h, two plates of each cell line are fixed in situ with TCA, to represent a measurement of the cell population for each cell line at the time of drug addition (Tz). Experimental drugs […]
(§5) are solubilized in dimethyl sulfoxide at 400-fold the desired final maximum test concentration and stored frozen prior to use. At the time of drug addition, an aliquot of frozen concentrate is […]
(§6) thawed and diluted to twice the desired final maximum test concentration with complete medium containing 50 μg/ml gentamicin. Additional four, 10-fold or ½ log serial dilutions are made to provide a total of five drug concentrations plus control. Aliquots of 100 μl of these different drug dilutions are added to the appropriate microtiter wells already containing 100 μl […]
(§7) of medium, resulting in the required final drug concentrations.
(§8) Following drug addition, the plates are incubated for an additional 48 h at 37°C, 5 % CO2, 95 % air, and 100 % relative humidity. For adherent cells, the assay is terminated by the addition […]
(§9) of cold TCA. Cells are fixed in situ by the gentle addition of 50 μl of cold 50 % (w/v) TCA […]
(§10) (final concentration, 10 % TCA) and incubated for 60 minutes at 4°C. The supernatant is […]
(§11) discarded, and the plates are washed five times with tap water and air dried. Sulforhodamine B (SRB) solution (100 μl) at 0.4 % (w/v) in 1 % acetic acid is added to each well, and plates are […]
(§12) incubated for 10 minutes at room temperature. After staining, unbound dye is removed by […]
(§13) washing five times with 1 % acetic acid and the plates are air dried. Bound stain is subsequently […]
(§14) solubilized with 10 mM trizma base, and the absorbance is read on an automated plate reader […]
(§15) at a wavelength of 515 nm. For suspension cells, the methodology is the same except that the […]
(§16) assay is terminated by fixing settled cells at the bottom of the wells by gently adding 50 μl of 80 % TCA (final concentration, 16 % TCA). Using the seven absorbance measurements [time […]
(§17) zero, (Tz), control growth, (C), and test growth in the presence of drug at the five concentration […]
(§18) levels (Ti)], the percentage growth is calculated at each of the drug concentrations levels.
(§19) Percentage growth is calculated as:
(§20) [(Ti-Tz)/(C-Tz)] x 100 for concentrations for which Ti>/=Tz
(§21) [(Ti-Tz)/Tz] x 100 for concentrations for which Ti<Tz.
(§22) Three dose response parameters are calculated for each experimental agent. Growth inhibition […]
(§23) resulting in a 50% reduction in the net protein increase (as measured by SRB staining) in […]
(§24) control cells during the drug incubation. The drug concentration resulting in total growth inhibition (TGI) is calculated from Ti = Tz. The LC50 (concentration of drug resulting in a […]
(§25) 50% reduction in the measured protein at the end of the drug treatment as compared to that at […]
(§26) the beginning) indicating a net loss of cells following treatment is calculated from [(Ti-Tz)/Tz] […]
(§27) x 100 = -50. […]

The next assay deals with EKVX. To be noted: Non-small cell lung cancer, five-dose 0.01–100 µM. Here is the method: as §1, §2, §3, §4, §5, §6, §7, §8, §9, §10, §11, §12, §13, §14, §15, §16, §17, §18, §19, §20, §21, §22, §23, §24, §25, §26, §27
A further assay deals with HOP-62. To be noted: HOP-62, Non-small cell lung cancer; five-dose 0.01–100 µM. How it is done:
as §1, §2, §3, §4, §5, §6, §7, §8, §9, §10, §11, §12, §13, §14, §15, §16, §17, §18, §19, §20, §21, §22, §23, §24, §25, §26, §27

The next assay deals with HOP-92. To be noted: HOP-92, Non-small cell lung cancer; five-dose 0.01–100 µM. Here is the method: as §1, §2, §3, §4, §5, §6, §7, §8, §9, §10, §11, §12, §13, §14, §15, §16, §17, §18, §19, §20, §21, §22, §23, §24, §25, §26, §27
The test system of a further assay is NCI-H226. The settings on record: NCI-H226, Non-small cell lung cancer; five-dose 0.01–100 µM. How it is done:
as §1, §2, §3, §4, §5, §6, §7, §8, §9, §10, §11, §12, §13, §14, §15, §16, §17, §18, §19, §20, §21, §22, §23, §24, §25, §26, §27

Another assay concerns NCI-H23. To be noted: NCI-H23, Non-small cell lung cancer; five-dose 0.01–100 µM. How it is done: as §1, §2, §3, §4, §5, §6, §7, §8, §9, §10, §11, §12, §13, §14, §15, §16, §17, §18, §19, §20, §21, §22, §23, §24, §25, §26, §27
The subject of the next assay is NCI-H322M. Here is the method:
as §1, §2, §3, §4, §5, §6, §7, §8, §9, §10, §11, §12, §13, §14, §15, §16, §17, §18, §19, §20, §21, §22, §23, §24, §25, §26, §27

Another assay relates to NCI-H460. The settings on record: NCI-H460, Non-small cell lung cancer; five-dose 0.01–100 µM. How it is done:
as §1, §2, §3, §4, §5, §6, §7, §8, §9, §10, §11, §12, §13, §14, §15, §16, §17, §18, §19, §20, §21, §22, §23, §24, §25, §26, §27

The test system of a further assay is NCI-H522. To be noted: NCI-H522, Non-small cell lung cancer; five-dose 0.01–100 µM. Here is the method: as §1, §2, §3, §4, §5, §6, §7, §8, §9, §10, §11, §12, §13, §14, §15, §16, §17, §18, §19, §20, §21, §22, §23, §24, §25, §26, §27

Molecules are shown by their SMILES.

As to `CCOC(=O)CC[C@H](NC(=O)c1ccc(NC(=O)Cn2cnc3c(c(C)nn3-c3ccc(Br)cc3)c2=O)cc1)C(=O)OCC` [Compound 6i], the TGI with A549/ATCC worked out at 57.3 µM; with EKVX it was 27.3 µM; in the assay on HOP-62, 19.8 µM; in the assay on HOP-92, 23.7 µM; in the assay on NCI-H226, 27.8 µM; in the assay on NCI-H23, 26.7 µM. Further, the values for the TGI in the assay on NCI-H322M, in the assay on NCI-H460 and with NCI-H522 were 66.6 µM, 34.4 µM and 38.2 µM, respectively. For the same compound, in the assay on NCI-H322M (Homo sapiens, NCI-H322M), halving of growth (GI50) required 21.3 µM. In addition, the CC50 with NCI-H322M (Homo sapiens, NCI-H322M, read-out: LC50) is > 100 µM.
